Measured values as given in the RNAGym collection of RNA variant scans (doi:10.1093/nar/gkz1192).
Read counts are not given, so values of variants with three or more changes are uncertain.

B1: CPEB3 Ribozyme (parent)
chain: UAACAGGGGGCCACAGCAGAAGCGUUCACGUCGCAGCCCCUGUCAGAUUCUGGUGAAUCUGCGAAUUCUGCUGUAUAUCUC

Variants of: B1
Experiment: self-cleavage, relative activity (ratio to wild type); higher = more cleavage; in vitro, sequencing
Outline: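 Barcoded CPEB3 ribozyme mutants, produced by rounds of error-prone PCR, self-cleaved while being transcribed with T7 RNA polymerase for 5 hours at 37°C and during a subsequent 15 min DNase I step before EDTA was added. Sequencing of template-switched cDNA on Illumina gave cleaved and total reads, and DNA sequencing assigned barcodes to variants. Each variant's relative activity is its cleaved/total read fraction divided by the unmutated ribozyme's fraction, averaged across three batches. A variant needed a minimum of 5 reads.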

| Variant | self-cleavage |
| --- | --- |
| G24U U31C C38U A45G U49C A64U | 0.08 |
| C23U U51A A64G U69C U72A | 0.1 |
| G24A U25C G42A | 0.29 |
| C23G U26C C32U | 0.06 |
| C23U U60C C68A U74A | 0.04 |
| G24C A35U U48A | 0.17 |
| G24A A35U A75U | 0.09 |
| U25A A35U G53A U60C | 0.19 |
| C23G U51C C79U | 0.05 |
| G24A C32U A56G | 0.42 |
| U25A A35G U41A | 0.23 |
| U25A A35G U41C | 0.15 |
| G24A U26C U54A A64G | 0.22 |
| U25A A28G U43C U72C | 0.61 |
| C23U U41C U43C U49C U69C U76A U78C | 0.11 |
| G24C U41C G53A U66C U74A | 0.08 |
| U25A A35U U48C U49A U67A U80C | 0.05 |
| C23G U31C U43C U60A A64G | 0.08 |
| G24A U26A U49C | 0.21 |
| G24A U41C U67A | 0.15 |
| G24A A28U C40U | 0.13 |
| U25A A28G U43G A45G U48A | 0.07 |
| C23U U26C G30A U31C U69C | 0.07 |
| G24A U26A A35G U48A | 0.08 |

| Variant | self-cleavage |
| --- | --- |
| G24A U31G C40A U41C A45G A57G A64U | 0.06 |
| C23U C32G U72C U78C | 0.06 |
| G24A U31G C40G A56G A57G A64U | 0.07 |
| U25A A35G A45U A56U U74A U80C | 0.08 |
| C23U G52C U54G U78A | 0.34 |
| C23U U26C A35G G52A U54C C59U | 0.09 |
| C23G U54C A75G | 0.05 |
| G24A C32A A35C U51C | 0.18 |
| C23U U26C A45U U60C U74C | 0.07 |
| G24A U25C C29A C59U G63A A64G U69C | 0.03 |
| C23U U48C G63U | 0.22 |
| G24A U41C U69C U72C | 0.14 |
| C23G U31C A47G A64G | 0.07 |
| G24A C29U U43C A65U | 0.09 |
| C23U U69C A77G | 0.34 |
| G24C U67C C81U | 0.15 |
| U25A A28G U41A G61C G70C | 0.28 |
| G24A A35G A57G | 0.16 |
| C23G A47U G53A A65U U67C U69A U72C | 0.04 |
| C23U A28C U41C | 0.23 |
| C23G U48C U67G | 0.17 |
| C23G U48C U67C | 0.09 |
| C23G U25C C27A A57C G63U | 0.09 |
| U25A A28G U60C A64G U80C | 0.17 |

| Variant | self-cleavage |
| --- | --- |
| U25A A45C U54A | 0.44 |
| G24A U41G U49C | 0.16 |
| C23G G36A U48C U72G U78C U80C | 0.2 |
| G24A U31C G36U U60A | 0.1 |
| G24U U25C U49A A56U U69C | 0.07 |
| C23U A35U A47G U48A U58C | 0.09 |
| G24U U31G G73U | 0.32 |
| G24C U49G A56G U67C | 0.24 |
| G24A U25C U48C A57G | 0.07 |
| C23U G52A U69C | 0.08 |
| C23G U26C A45G U72A C81G | 0.15 |
| C23G U26C A47U A57G U80C | 0.11 |
| G24A U54C A56U U80A | 0.15 |
| C23U A28U A35G U41C U49C U72A | 0.07 |
| C23U G52C A64U | 0.13 |
| C23U U26C A35G C50U U66C | 0.09 |
| G24A A35U A64G | 0.18 |
| G24U U41C U58C | 0.18 |
| G24C U41C C50A U66A | 0.1 |
| G24A A57G U60C U67C | 0.06 |
| G24A U31A C32U U60G A64G | 0.09 |
| G24A G30A U41A A47G U49C | 0.1 |
| G24C A45G U58G | 0.06 |
| C23U A28G U80C | 0.25 |

| Variant | self-cleavage |
| --- | --- |
| C23G C37A U60C C81U | 0.06 |
| C23U A28G A47G U58C U69C | 0.07 |
| U25A A35G U41C U43C U60A U69C | 0.02 |
| G24A U51C U67C C71U U78C | 0.05 |
| C23U U26C A56G U69C | 0.36 |
| C23U A35U A47U | 0.03 |
| G24C U41A U49C U69C | 0.14 |
| G24A U25C U66C U80C | 0.29 |
| C23U U49C U54A U60C | 0.51 |
| C23U U60A U76C | 0.06 |
| G24A U26C A56U A57G A64G | 0.07 |
| U25A A28G U41C A77G | 0.17 |
| C23G A45U A77U | 0.09 |
| U25A A28U U78C | 0.07 |
| G24A A28G U74C | 0.16 |
| G24U A35G A56G U72C U80C | 0.58 |
| C23G U72C U74C | 0.23 |
| G24A U25C U31C U49A G70C A75G | 0.09 |
| G24U U25A A45U | 0.07 |
| C23U A47G C81A | 0.11 |
| C23G U41C U78A | 0.1 |
| C23G C34A A56G U58C A65U | 0.05 |
| C23G U43C C62A A75U | 0.2 |
| U25A A35C G70A U80C | 0.13 |

| Variant | self-cleavage |
| --- | --- |
| G24U U48C A56G | 0.34 |
| U25A A35G C39A | 0.15 |
| U25A A28G G46A U74G | 0.04 |
| G24C C38G U49C U78C | 0.02 |
| C23G U41C G63U A65G | 0.07 |
| C23U G30U U69A | 0.05 |
| G24A U26C A28G G73A A75G | 0.23 |
| G24A C29G A75G | 0.18 |
| C23U G33U U67C | 0.08 |
| C23U C50G A64C U72C | 0.06 |
| U25A A35C U78C | 0.16 |
| C23U A45G G70A | 0.05 |
| G24A U51C U66C | 0.15 |
| G24A U54A A57G U67C U80C | 0.09 |
| U25A A28U A77C | 0.41 |
| U25A A28U U31A | 0.16 |
| C23U U26C C38U | 0.19 |
| C23G U26A A47G U66C | 0.06 |
| G24A U43A C62A | 0.13 |
| C23G U31A U69A | 0.04 |
| G24A U31C U41A C44G | 0.05 |
| C23U U41C U43C U60C C62A | 0.06 |
| C23U A35U C39G G42A U80C | 0.09 |
| C23U U43C U54C U69C | 0.13 |

| Variant | self-cleavage |
| --- | --- |
| G24C A64G C68U | 0.16 |
| G24A A35U U60A | 0.17 |
| G24A U31C U51A | 0.16 |
| G24A U72A U80C | 0.14 |
| C23U A28G U48C U60A U66C A77U | 0.11 |
| C23U U26A U43C C71A | 0.05 |
| G24A A28G C32U U58C | 0.07 |
| G24A U25C A28U A45G U60C | 0.06 |
| C23U U25C A57U U60C C79A | 0.05 |
| C23G C40A U72C | 0.09 |
| G24C U31A U43C G55A U69A U72C A77G | 0.06 |
| C23U U49C G63A U80A | 0.05 |
| C23U G52U A56U C68U U69C | 0.27 |
| G24A U31C U41C | 0.16 |
| G24A U54C A77G | 0.05 |
| C23U C32U A45G A57G U60C | 0.07 |
| U25A A28U A35G | 0.09 |
| C23U U26A U43G U51C | 0.14 |
| U25A A28G A47G U49C U51C | 0.06 |
| G24C U26C U48C U72G U78C | 0.07 |
| G24A U26A A47G A65C | 0.19 |
| U25A A28G A57U U60C | 0.07 |
| G24U U48C A77C | 0.47 |
| C23U A45U U51C A64G U69C U72G | 0 |

| Variant | self-cleavage |
| --- | --- |
| C23U G70A U72C | 0.39 |
| G24A U41C A57G | 0.23 |
| C23G U31C C32U A45G | 0.05 |
| G24A C59A A64G U69A U72C | 0.09 |
| G24C U25C G30U | 0.09 |
| C23G U26A A35G G52A A77G | 0.05 |
| G24A U25C G30U U48A | 0.37 |
| C23G G33C U41A U51C U80C | 0.11 |
| C23U U26C U51C U66C U69A U80G | 0.13 |
| C23U C68A U74A | 0.1 |
| G24A A45G A64G | 0.08 |
| C23G A75G A77U | 0.08 |
| C23U G33U A45G | 0.24 |
| C23U C44U A56G | 0.07 |
| C23G U54A U67C C79U | 0.05 |
| C23G U25C C29G | 0.37 |
| G24C U26C A64G U72A C79U U80C | 0.22 |
| U25A A28G U41C U54C A57U U66C | 0.07 |
| U25A A28G A35G | 0.18 |
| C23U C40A A56U A64U G73U | 0.07 |
| C23U U49C U67C | 0.08 |
| G24U U25C U43A U66C | 0.14 |
| C23U U25C A45C A57G U69C | 0.1 |
